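Method: 48-hour compound exposure of cells in 96-well plates, five concentrations, linear interpolation of endpoints. Abbreviation: GI50, concentration required for 50% inhibition of growth.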 The source holds more than one record for some entries. The other results are left out here. The source may hold further records. A record mostly stands for its own series of concentrations, not given here; some values may only mark the edge of a range.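 Definition used: TGI = concentration required for complete inhibition of growth.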
What was measured:
Assay in all cases: DTP human tumour cell line panel, 48 h
RPMI-8226 leukemia = system: RPMI-8226 leukemia
IGROV1 ovarian = system: IGROV1 ovarian
SK-MEL-2 melanoma = system: SK-MEL-2 melanoma
HCC-2998 colon = system: HCC-2998 colon
COLO 205 colon = system: COLO 205 colon
NCI/ADR-RES ovarian = system: NCI/ADR-RES ovarian
BT-549 breast = system: BT-549 breast
NCI-H460 lung = system: NCI-H460 lung
SK-OV-3 ovarian = system: SK-OV-3 ovarian
SNB-75 CNS = system: SNB-75 CNS
NCI-H23 lung = system: NCI-H23 lung
TK-10 renal = system: TK-10 renal
KM12 colon = system: KM12 colon
OVCAR-5 ovarian = system: OVCAR-5 ovarian

SMILES | TGI (RPMI-8226 leukemia) | GI50 (IGROV1 ovarian) | TGI (IGROV1 ovarian) | GI50 (SK-MEL-2 melanoma) | TGI (HCC-2998 colon) | TGI (COLO 205 colon) | TGI (NCI/ADR-RES ovarian) | TGI (BT-549 breast) | TGI (NCI-H460 lung) | TGI (SK-OV-3 ovarian) | TGI (SNB-75 CNS) | TGI (NCI-H23 lung) | TGI (TK-10 renal) | TGI (KM12 colon) | TGI (OVCAR-5 ovarian)
CCC1=CC2CN(C1)Cc1c([nH]c3ccccc13)[C@@](C(=O)OC)(c1cc3c(cc1OC)N(C)[C@H]1[C@@](O)(C(=O)OC)[C@H](OC(C)=O)[C@]4(CC)C=CCN5CC[C@]31[C@@H]54)C2 (some centres not stated) | 5.28 µM and > 100 µM | < 5 nM and 342 nM | 353 nM and > 100 µM | < 5 nM and 23.6 µM | 11.8 µM and 86.7 nM | 367 nM and 19.8 nM | 9.04 µM and > 100 µM | 413 nM and 19.1 µM | 8.09 µM and 446 nM | – | – | – | – | – | –
CC(C)(C)c1cc(C=C(C#N)C#N)cc(C(C)(C)C)c1O | 674 nM and 11.6 µM | – | – | – | – | – | – | – | – | 831 nM [1 test] and 15.8 µM [mean of 2 tests] | 793 nM and 28.3 µM | 825 nM and 9.89 µM | 923 nM and 197 µM | 73.1 µM and 6.21 µM | 32.2 µM and > 354 µM
C=C(CN(C)C)C(=O)c1ccccc1[N+](=O)[O-] | 5.91 µM [1 test] and > 68.8 µM [mean of 2 tests] | – | – | – | – | – | – | – | – | – | – | – | – | – | –

— PubChem BioAssay (NCI)
